Some of the results follow. Cut-off read from the data, not from the text of the source: active = 3.2 or more and inactive = the rest. Most of these values are background signal.
B1: CYP19A1_Y361_R365Q (peptide)
chain: MENFIYESMQY
B2: CYP19A1_Y361_R365Q_YF (peptide)
chain: MENFIYESMQF
B3: CYP19A1_Y361_YF (peptide)
chain: MENFIYESMRF
B4: CYP19A1_Y441_C437Y (peptide)
chain: GYAGKYIAMVM
B5: CYP19A1_Y441_C437Y_YF (peptide)
chain: GFAGKYIAMVM
B6: CYP1A2_Y72_G73R (peptide)
chain: RMSQRYRDVLQ
B7: CYP21A2_Y190_Y191H (peptide)
chain: NLMPAYHKCIQ
B8: CYP24A1_Y407_L409S (peptide)
chain: TVLGEYASPKG
B9: CYP2C8_Y243_A238P (peptide)
chain: PLTRSYIREKV
B10: CYP2C8_Y243_I244V (peptide)
chain: ALTRSYVREKV
B11: CYP2C8_Y379_K383N (peptide)
chain: TKFRNYLIPNG
B12: CYP2D6_Y124 (peptide)
chain: VFLARYGPAWR
B13: CYP39A1_Y102 (peptide)
chain: VQNIVYRTASI
B14: CYP3A4_Y347_T349N (peptide)
chain: KAPPTYDNVLQ
B15: CYP3A4_Y432_I431T_YF (peptide)
chain: IDPFTYTPFGS
B16: CYP3A7_Y75 (peptide)
chain: KVWGIYDCQQP
B17: CYP4B1_Y377 (peptide)
chain: ESFRLYPPVPQ
B18: CYTH1_Y382 (peptide)
chain: SRDPFYEMLAA

Each binder was assayed against SHP2 C-SH2 domain E139D (assay: enrichment score (SH2-bound / input frequency) (ratio); bacterial display of known human phosphotyrosine sites (pTyr-Var adds point mutants) read by sequencing; higher = stronger binding; tyrosines were phosphorylated by kinases first). Settings: peptide library: pTyr-Var.
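Note: displayed peptides selected on beads carrying the immobilized SH2 domain, with library peptides lacking any tyrosine serving as negative controls.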

Enrichment score, inactive:
B1 1.15
B2 0.954
B3 1.31
B4 1.08
B5 0.879
B6 0.239
B7 0.922
B8 0.471
B9 0.475
B10 0.397
B11 0.685
B12 0.445
B13 0.669
B14 0.931
B15 1.08
B16 1.16
B17 0.826
B18 0.855

The binders below were run against SHP2 C-SH2 domain wild-type in the same assay as above. Settings: peptide library: pTyr-Var.

Enrichment score, inactive:
B1 0.86
B2 1.16
B3 1.33
B4 1.06
B5 0.821
B6 0.193
B7 1.12
B8 0.545
B9 0.463
B10 0.334
B11 0.662
B12 0.502
B13 0.73
B14 0.828
B15 0.648
B16 1.14
B17 0.625
B18 0.658

The binders below were run against SHP2 N-SH2 domain L43F in the same assay as above. Settings: peptide library: pTyr-Var.

Enrichment score, inactive:
B1 1.03
B2 1.02
B3 1.33
B4 0.958
B5 0.818
B6 0.339
B7 1.33
B8 0.526
B9 0.621
B10 0.464
B11 0.766
B12 0.434
B13 0.717
B14 0.816
B15 0.842
B16 1.14
B17 0.657
B18 0.747

What follows are binders tested against SHP2 N-SH2 domain T42A in the same assay as above. Settings: peptide library: pTyr-Var.

Enrichment score, inactive:
B1 0.892
B2 0.887
B3 1.23
B4 0.942
B5 0.787
B6 0.186
B7 0.881
B8 0.449
B9 0.371
B10 0.7
B11 0.75
B12 0.398
B13 0.605
B14 0.975
B15 0.851
B16 1.2
B17 0.874
B18 0.689

Each binder was assayed against SHP2 N-SH2 domain T52S in the same assay as above. Settings: peptide library: pTyr-Var.

Enrichment score, inactive:
B1 0.977
B2 1.04
B3 1.39
B4 0.905
B5 1.06
B6 0.305
B7 0.835
B8 0.432
B9 0.429
B10 0.335
B11 0.703
B12 0.535
B13 0.777
B14 0.92
B15 0.886
B16 1.04
B17 0.751
B18 0.798

The binders below were run against SHP2 N-SH2 domain wild-type in the same assay as above. Settings: peptide library: pTyr-Var.

Enrichment score, inactive:
B1 0.989
B2 1.04
B3 1.37
B4 1.06
B5 1.65
B6 0.345
B7 1.17
B8 0.574
B9 0.592
B10 0.814
B11 0.746
B12 0.483
B13 0.797
B14 0.798
B15 1.03
B16 1.55
B17 0.681
B18 0.868
